According to article PMC4336329 (PLoS ONE, 2015):
Out of some 310,000 compounds screened, about 2,200 (0.71%) showed an effect of 50% or more. Effects have a minus sign here. The list shows a part of the results.

These compounds were tested against human ether-à-go-go-related gene (hERG) potassium channel (human, UniProt Q12809) (assay: primary screen, population patch clamp on CHO cells stably expressing hERG).
human ether-à-go-go-related gene (hERG) potassium channel, sequence (Q12809 whole entry, looked up): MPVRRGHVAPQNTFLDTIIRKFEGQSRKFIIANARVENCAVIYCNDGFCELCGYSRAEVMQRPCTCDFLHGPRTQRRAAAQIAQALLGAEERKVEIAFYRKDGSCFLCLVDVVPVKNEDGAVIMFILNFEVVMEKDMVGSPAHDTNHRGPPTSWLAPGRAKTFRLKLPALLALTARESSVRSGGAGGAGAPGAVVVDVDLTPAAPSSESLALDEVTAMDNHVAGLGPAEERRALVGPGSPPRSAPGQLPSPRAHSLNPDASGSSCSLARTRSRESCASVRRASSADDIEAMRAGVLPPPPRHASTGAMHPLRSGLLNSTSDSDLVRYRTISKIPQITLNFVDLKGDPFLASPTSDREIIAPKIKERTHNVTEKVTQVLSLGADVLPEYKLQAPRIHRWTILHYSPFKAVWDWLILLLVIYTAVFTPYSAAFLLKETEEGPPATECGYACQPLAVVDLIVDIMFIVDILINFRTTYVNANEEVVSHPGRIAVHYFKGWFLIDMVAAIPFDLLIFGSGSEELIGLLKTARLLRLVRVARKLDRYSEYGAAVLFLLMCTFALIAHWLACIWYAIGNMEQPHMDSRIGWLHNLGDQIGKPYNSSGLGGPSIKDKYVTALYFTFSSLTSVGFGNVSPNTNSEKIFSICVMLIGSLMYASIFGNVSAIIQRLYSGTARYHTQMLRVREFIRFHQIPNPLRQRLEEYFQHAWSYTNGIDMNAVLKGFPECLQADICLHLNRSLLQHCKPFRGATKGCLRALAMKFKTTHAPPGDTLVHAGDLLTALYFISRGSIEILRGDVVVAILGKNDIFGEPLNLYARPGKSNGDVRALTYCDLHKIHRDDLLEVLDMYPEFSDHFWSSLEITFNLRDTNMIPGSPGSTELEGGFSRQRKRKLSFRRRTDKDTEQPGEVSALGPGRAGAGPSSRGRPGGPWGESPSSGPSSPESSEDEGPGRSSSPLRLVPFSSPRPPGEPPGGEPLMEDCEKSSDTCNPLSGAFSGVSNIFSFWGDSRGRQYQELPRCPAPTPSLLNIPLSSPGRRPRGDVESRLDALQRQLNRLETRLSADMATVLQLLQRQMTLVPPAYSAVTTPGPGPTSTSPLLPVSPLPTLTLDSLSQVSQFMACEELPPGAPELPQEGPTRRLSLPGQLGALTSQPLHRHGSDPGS

Compound	hERG current change (%, negative = inhibition) at 1uM [%]
Nn1c(SCC(=O)N2CCCc3ccccc32)nncc1=O	11.7
N=C1C(c2nc(-c3ccc(F)cc3)cs2)=C(O)CN1Cc1ccc(Cl)cc1	6.82
CCC(c1nnc(SCC(=O)N2CC3(C)CC2CC(C)(C)C3)o1)N(C)C (centres unmarked)	1.36
Cc1cc2c(=O)oc(-c3ccc(F)cc3)nc2s1	10.1
O=C(Nc1nc(-c2ccco2)c(-c2ccco2)s1)C1CC(=O)N(c2ccc3c(c2)OCCO3)C1 (centres unmarked)	12.6
CC(C)c1ccccc1NC(=O)Cn1c(-c2ccccc2Cl)nc2ccccc21	3.65
O=C(O)c1ccccc1-c1ccccc1C(=O)Nc1ccc2c(c1)CCC2	14.3
COc1ccccc1N1CCN(C(=O)c2ccco2)CC1	12.8
CC1CCc2c(sc(NC(=O)c3ccc(Cn4cc(Br)cn4)o3)c2C(N)=O)C1 (centres unmarked)	4.35
Cc1nc(Nc2cccc(O)c2)c2c3c(sc2n1)CCC3	12.8
OCCC1CN(Cc2cnn(-c3ccccc3Cl)c2)CCN1Cc1ccsc1 (centres unmarked)	6.92
CCN(CC(=O)NCCC1=CCCCC1)S(=O)(=O)c1ccccc1	3.77
CCOC(=O)c1cn(Cc2cccc(Cl)c2)nn1	-0.868
O=C(Nc1ccc(CN2CCS(=O)(=O)CC2)cc1)c1ccc(C(F)(F)F)cc1	12.2
CC(Sc1ccccc1)C(=O)N/N=C/c1ccccc1 (centres unmarked)	11.1
CC1(c2ccc(OC(F)F)cc2)NC(=O)N(CC(=O)Nc2ccc(Cl)cc2F)C1=O (centres unmarked)	-6.7
COC(=O)CNC(c1ccccc1)c1cc(Br)ccc1NC(=O)CNC(=O)OCc1ccccc1 (centres unmarked)	9.97
COCCCN1C(=O)/C(=C\c2cccs2)C(C(=O)OC)=C1C	-3.93
Cn1[nH]c(C(F)(F)F)c(C=Nc2ccc(Cl)cc2)c1=O	7.04
COc1ccc(OC)c(CNC(=O)CCCn2ccc3cc(S(=O)(=O)N4CCCC4)ccc32)c1	13.3
Cc1cc(SCC#N)n2nc(C)c(-c3ccccc3)c2n1	14.5
COC(/C=C/Nc1ccc(Br)cc1)=C(C#N)C#N	-0.86

Compound	hERG current change (%, negative = inhibition) at 1uM [%]
CCOCCn1c(SCCc2ccccc2)nc2c1c(=O)[nH]c(=O)n2C	3.5
O=C(O)c1ccc(CN2C(=O)c3ccccc3S2(=O)=O)cc1	8.66
Cc1ccc(N=Cc2c(O)n(-c3cc(Cl)ccc3N3CCOCC3)c(=O)c3ccccc23)cc1C	5.4
Cn1c(SCC(=O)c2ccccc2)nnc1-c1cccs1	4.07
O=C(COc1ccc2ccc(=O)oc2c1)N1CCc2ccccc21	5.43
O=c1c2cc(Br)ccc2nc(-c2ccc([N+](=O)[O-])cc2)n1O	19.9
C=CCn1c(COc2ccccc2)nnc1SCC(=O)N/N=C/c1ccc(C)cc1	-2.01
Cc1ccc([N+](=O)[O-])c(OCCN2CCc3ccccc3C2)c1.O=C(O)C(=O)O	8.56
CC(C)c1ccc(OCC(=O)Nc2ccncc2)cc1	10.7
c1ccc2c(c1)sc1nnnn12	-0.501
C/C(=N\NS(=O)(=O)c1ccc(Cl)c([N+](=O)[O-])c1)c1ccc(C)o1	11.1
CCOC(=O)c1c(C)[nH]c(C)c1C(=O)CSc1nc2ccccc2c(=O)n1-c1ccccc1C	6.67
CC1(C)CC(=O)C(C(N)=NC(=O)c2ccccc2)=C(O)C1	11.5
CC(=O)Nc1ccc(CN2CCC(CO)(CCOc3ccccc3)CC2)cc1	-43.8
CCOC(=O)N1CCN(C(=O)CSC2=NS(=O)(=O)c3cc(Cl)ccc3N2)CC1	14.8
CN(Cc1ccccc1)Cc1nc2c([nH]1)c(=O)n(C)c(=O)n2C	0.239
CCOC(=O)N1CCN(C(=O)c2ccccc2NC(C)=O)CC1	12.8
COc1cccc(C(=O)Nc2ccc(N(C)C)cc2)c1OC	15.3
COc1cc(C(C(=O)NC2CCCCC2)N(Cc2ccco2)C(=O)c2cnccn2)cc(OC)c1OC (centres unmarked)	9.86
CCCc1nc2ccccc2c(=O)n1CC(=O)c1ccccc1	4.93
Cc1nnc(SCC(=O)NC(C)(C)C)n1NCc1c(F)cccc1Cl	13
Cc1ccc(C(=O)Nc2ccccc2C(=O)N2CCCCCC2)cc1	12

Compound	hERG current change (%, negative = inhibition) at 1uM [%]
O=[N+]([O-])c1cccc(/C=N/Nc2nc(C(Cl)(Cl)Cl)nc3ccccc23)c1	7.48
O=C(OC1CCCCC1=O)c1ccc(S(=O)(=O)Nc2ccccc2)cc1 (centres unmarked)	10
O=C(Cc1ccc(F)cc1)Nc1ccccc1Sc1ccccc1	3.43
CCOC(=O)Cc1c(Sc2ccccc2)c2cc(C)ccc2n1C	0.574
O=C(CC1Oc2ccccc2NC1=O)NCCCN1CCN(C2CCCCC2)CC1 (centres unmarked)	10.1
COc1ccc(CCN(C)C(=O)c2cncc(Br)c2)cc1OC	18.6
CC(C)Oc1ccc(CNC(=S)N/N=C/c2cccnc2)cc1	6.38
COC(=O)C(C)Sc1nnc(Cc2cc(=O)[nH]c(=O)[nH]2)n1-c1ccc(OC)cc1 (centres unmarked)	-0.46
O=C(Nc1cccc([N+](=O)[O-])c1)C12CC3CC(C1)CC(n1cnc([N+](=O)[O-])n1)(C3)C2	-18.7
COc1ccc(Cl)cc1NC(=O)CN(C)C(=O)CCCc1c[nH]c2ccccc12	7.41
Cc1cccc(NCc2ccccc2O)c1C	-6.78
COc1cc2nc(CN3CCC(C(O)(c4ccccc4)c4ccccc4)CC3)[nH]c(=O)c2cc1OC	4.62
Cc1c(C(=O)Nc2ccccc2)cnn1-c1ccccc1	6.8
Cc1cc(C)c(S(=O)(=O)n2nc(C)c(Br)c2C)c(C)c1	3.15
CN(C)C(CNC(=O)c1ccc([N+](=O)[O-])cc1Cl)c1ccco1 (centres unmarked)	15.7
O=C(N/N=C/c1coc2ccccc2c1=O)c1ccccc1	14.7
O=C1COc2ccc(C(=O)COc3ccc([N+](=O)[O-])cc3)cc2N1	8.56
COc1ccc(C(=O)C2CCCN(CCO)C2)c(C)c1 (centres unmarked)	12.5
NC(CSCc1ccccc1Cl)C(=O)O (centres unmarked)	0.471
COc1ccccc1Cn1c(C)nc2ccccc21	14
O=C(COc1ccc(Br)cc1CO)Nc1ccccc1	7.6
CN(C)S(=O)(=O)c1cccc(NC(=O)CN2C(=O)NC(Cc3c[nH]c4ccccc34)C2=O)c1 (centres unmarked)	15.5

Compound	hERG current change (%, negative = inhibition) at 1uM [%]
CC(C)c1ccc(NC(=O)CN2CCN(c3ccccn3)CC2)cc1	3.18
CC(C)(C)C(=O)CN1C(=O)NC2(CCCc3ccccc32)C1=O (centres unmarked)	11.2
O=C1N[C@@H](Cc2ccccc2)C(=O)N2[C@H]1C[C@]1([C@]34C[C@H]5C(=O)N[C@@H](Cc6ccccc6)C(=O)N5[C@H]3N(S(=O)(=O)c3ccccc3)c3ccccc34)c3ccccc3N(S(=O)(=O)c3ccccc3)[C@H]21	17.4
CSc1nc(Sc2ccccc2Cl)c2ccccc2n1	15.7
CC1Cc2ccccc2N1S(=O)(=O)c1cnc(Cl)c(Cl)c1 (centres unmarked)	4.04
CC(C)(C)c1cc(Cc2ccccc2)[nH]n1	11.6
COc1ccccc1CNCc1cccc(Oc2ccccc2)c1	7.52
COc1ccccc1NC(=O)CCCN1C(=O)C(c2ccccc2)Oc2cccnc21 (centres unmarked)	6.76
CC(=O)Nc1ccc(NC(=O)C2C3CCC(C3)C2C(=O)O)cc1 (centres unmarked)	15.3
CC[N+](CC)(CC)CCCOC(=O)C(O)(c1ccccc1)C1CCCCC1.[Cl-] (centres unmarked)	6.29
CCCC(=O)Nc1c(C)nn(C(=O)CCC)c1C	7.41
CCOc1ccc(NS(=O)(=O)c2ccc(C(=O)NCCCN3CCCC3=O)cc2)cc1	5.72
CCOc1cccc(-c2c(C(=O)N/N=C(\C)c3cccs3)nnn2-c2nonc2N)c1	8.25
CCOc1ccc(S(=O)(=O)N2CCCC(C(=O)NCc3cccnc3)C2)cc1C (centres unmarked)	7.59
COc1ccc(/C=C(\NC(=O)c2ccc(C)cc2)C(=O)NCCN2CCOCC2)cc1	-33.3
Cn1ncc(C#N)c1NC(=O)c1cc(-c2ccccc2Cl)on1	9.4
CCOC(=O)c1c(C)[nH]c(C)c1S(=O)(=O)NC(C)Cc1ccco1 (centres unmarked)	26.8
CCCCNS(=O)(=O)c1ccc(S(=O)(=O)n2cnc3ccccc32)cc1	18
CC(C)(C)OC(=O)NCCCC[C@H](NC(=O)c1[nH]cnc1C(=O)N[C@@H](Cc1ccccc1)C(=O)OC(C)(C)C)C(=O)OC(C)(C)C	2.34
CCSc1nnc(NC(=O)C2Cc3ccccc3CN2C(=O)c2ccco2)s1 (centres unmarked)	10.8
